In patent US6610479:

Molecular target: human serum albumin (HSA), P02768

B1: ABP-Taq (full length Taq-polymerase fused to HSA-binding domain of Streptococcal protein G) (protein)
chain: LAEAKVLANRELDKYGVSDYHKNLINNAKTVEGVKDLQAQVVESAKKARISEATDGLSDFLKSQTPAEDTVKSIELAEAKVLANRELDKYGVSDYYKNLINNAKTVEGVKALIDEILAALPGMLPLFEPKGRVLLVDGHHLAYRTFHALKGLTTSRGEPVQAVYGFAKSLLKALKEDGDAVIVVFDAKAPSFRHEAYGGYKAGRAPTPEDFPRQLALIKELVDLLGLARLEVPGYEADDVLASLAKKAEKEGYEVRILTADKDLYQLLSDRIHVLHPEGYLITPAWLWEKYGLRPDQWADYRALTGDESDNLPGVKGIGEKTARKLLEEWGSLEALLKNLDRLKPAIREKILAHMDDLKLSWDLAKVRTDLPLEVDFAKRREPDRERLRAFLERLEFGSLLHEFGLLESPKALEEAPWPPPEGAFVGFVLSRKEPMWADLLALAAARGGRVHRAPEPYKALRDLKEARGLLAKDLSVLALREGLGLPPGDDPMLLAYLLDPSNTTPEGVARRYGGEWTEEAGERAALSERLFANLWGRLEGEERLLWLYREVERPLSAVLAHMEATGVRLDVAYLRALSLEVAEEIARLEAEVFRLAGHPFNLNSRDQLERVLFDELGLPAIGKTEKTGKRSTSAAVLEALREAHPIVEKILQYRELTKLKSTYIDPLPDLIHPRTGRLHTRFNQTATATGRLSSSDPNLQNIPVRTPLGQRIRRAFIAEEGWLLVALDYSQIELRVLAHLSGDENLIRVFQEGRDIHTETASWMFGVPREAVDPLMRRAAKTINFGVLYGMSAHRLSQELAIPYEEAQAFIERYFQSFPKVRAWIEKTLEEGRRRGYVETLFGRRRYVPDLEARVKSVREAAERMAFNMPVQGTAADLMKLAMVKLFPRLEEMGARMLLQVHDELVLEAPKERAEAVARLAKEVMEGVYPLAVPLEVEVGIGEDWLSAKE
  hot-start effect in kRAS PCR (primer-dimer formation): All the immobilised enzymes show hot-start effect in PCR with regard to preventing primer-dimer formation
